Laboratory results published in the BET-seq Pho4 binding data (Le et al. 2018).
This is one part of the list. Values were computed here from the reads of four pooled replicates and scatter widely.

biological target: T1, Pho4 (S. cerevisiae) (UniProt P07270); assay: relative binding free energy (BET-seq); higher = weaker binding; conditions: reference: library average
T1 sequence: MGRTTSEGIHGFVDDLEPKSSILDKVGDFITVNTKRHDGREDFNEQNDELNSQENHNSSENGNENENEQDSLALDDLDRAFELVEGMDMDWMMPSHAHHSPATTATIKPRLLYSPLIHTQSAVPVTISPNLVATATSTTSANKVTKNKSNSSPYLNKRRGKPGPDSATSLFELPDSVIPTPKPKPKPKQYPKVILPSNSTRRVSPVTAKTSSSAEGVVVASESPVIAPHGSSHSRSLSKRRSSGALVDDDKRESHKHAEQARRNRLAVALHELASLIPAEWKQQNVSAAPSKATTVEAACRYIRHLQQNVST

Relative binding free energy, -0.03 kcal/mol:
TTGATCACGTGGTCTG
ATTGGCACGTGACTGA
TGTGCCACGTGTGTTC
TGTCGCACGTGTAATT

Relative binding free energy, 0.45 kcal/mol:
GATTTCACGTGTGTTC
CGTCTCACGTGAGTTT

Relative binding free energy, 0.02 kcal/mol:
GGGAACACGTGTATTG
AGAGGCACGTGATTTT
TGGTGCACGTGAGGCA
ATTATCACGTGGGCGT
TTAGACACGTGGATAT
GCGAGCACGTGATGGT
ATTTGCACGTGCTGTA
ATGTGCACGTGACTGG

Relative binding free energy, -0.29 kcal/mol:
GGACGCACGTGGGGCT

Relative binding free energy, -0.04 kcal/mol:
TTGTGCACGTGTATCA
TGGGTCACGTGGGGAG
TATACCACGTGTTGGT
CTGTACACGTGGAGGG
AAATGCACGTGGTTGG
AGATGCACGTGTCTGG

Relative binding free energy, -0.02 kcal/mol:
TTCGGCACGTGTGATT
TCGAGCACGTGCGGGA
GGAGGCACGTGGACGA
GATGGCACGTGTGTAT
TTGGACACGTGGGTTG
GGCTGCACGTGGTCTG
TGTGGCACGTGTAGCA
GATGGCACGTGTCGCG

Relative binding free energy, 0.33 kcal/mol:
GGGTTCACGTGCGGTT
GAGCTCACGTGGGAGT

Relative binding free energy, -0.06 kcal/mol:
TGAGGCACGTGGTTGG
ACAGGCACGTGAGGGG
AAGGACACGTGGTGGG
AAGCGCACGTGTTGGA
TTCGGCACGTGTCTTT

Relative binding free energy, -0.18 kcal/mol:
TCGGGCACGTGTAGGA
TTGGACACGTGCGCGG
TGTGGCACGTGGCGTA
AAAGGCACGTGGTGTT

Relative binding free energy, -0.21 kcal/mol:
AAGGCCACGTGTTTGG

Relative binding free energy, -0.1 kcal/mol:
TGGGTCACGTGCCTGT
TAAGCCACGTGTGTTG
AAGAGCACGTGTGAGT
TTCTGCACGTGGGGCT

Relative binding free energy, 0.06 kcal/mol:
TTAGACACGTGGTTAT
AATTACACGTGTTGTG
CGAAGCACGTGGATGG

Relative binding free energy, -0.01 kcal/mol:
CGGTGCACGTGTAGTG
GGTAGCACGTGGATTA
TGTGGCACGTGACGTA
CAGGTCACGTGCGGGG

Relative binding free energy, -0.14 kcal/mol:
GGGTGCACGTGGGCCT

Relative binding free energy, 0.12 kcal/mol:
AGCCTCACGTGGTTGG
TAGTGCACGTGATGAT
AGTTACACGTGTAGTG
TGTTGCACGTGACTCG
CGTATCACGTGGCTGG

Relative binding free energy, -0.07 kcal/mol:
GTGTGCACGTGCGTTA
ATGGACACGTGGGGCA
TATGACACGTGGATAT
ATAAGCACGTGCGGTA
GTAGCCACGTGTTAGT
GTATGCACGTGGGTAT

Relative binding free energy, -0.23 kcal/mol:
AGTCGCACGTGCGGGG
AAAGGCACGTGGGGCC
GCGGGCACGTGGGCGG

Relative binding free energy, 0.34 kcal/mol:
ACATTCACGTGATGTG
GTGTTCACGTGTAGTG
AGGTTCACGTGTGGTC

Relative binding free energy, 0.35 kcal/mol:
TGGGTCACGTGTGAAG
ATCTTCACGTGAAGGG
CTGATCACGTGAGTTT

Relative binding free energy, 0.14 kcal/mol:
GCTATCACGTGCGGTG
GGTCGCACGTGTATGG
TGTATCACGTGTATGT
ATATTCACGTGGTCGT

Relative binding free energy, 0.22 kcal/mol:
GGTTACACGTGTACGG
GAGCTCACGTGTATGG
GTATTCACGTGGAAGG
TTTTTCACGTGGGGAC
TGGGTCACGTGTCTTG

Relative binding free energy, 0.41 kcal/mol:
TTGTTCACGTGGACGA

Relative binding free energy, 0.31 kcal/mol:
TTTTTCACGTGATTGA

Relative binding free energy, -0.2 kcal/mol:
TGCGCCACGTGGAGGT
CACAGCACGTGGGGTT
CGGTGCACGTGGGTGT
ATATGCACGTGGGATT

Relative binding free energy, -0.22 kcal/mol:
GGGAGCACGTGTGTAG
GTAGCCACGTGGGGAG

Relative binding free energy, -0.13 kcal/mol:
AAGGGCACGTGGTTGA

Relative binding free energy, 0.4 kcal/mol:
GTTTTCACGTGTCTTT

Relative binding free energy, 0.32 kcal/mol:
GGGTGCACGTGAATGT

Relative binding free energy, 0.18 kcal/mol:
CGTATCACGTGATTTG
TTAGTCACGTGCGTAG
TACTTCACGTGTGTGA
GGGTTCACGTGCGCTG
CGTGACACGTGAAGGG
ATGATCACGTGTCAGG

Relative binding free energy, 0.15 kcal/mol:
ATGATCACGTGTTCGA
CTGCTCACGTGGGAGT
GTGTGCACGTGTAAGC
TAAAGCACGTGATTAT
TTTATCACGTGGTGTC
GTTGTCACGTGTGCCA

Relative binding free energy, 0.38 kcal/mol:
GTGATCACGTGATAGT

Relative binding free energy, 0.16 kcal/mol:
GTGGGCACGTGAAACG
ATTGACACGTGAGTGA
GTTTACACGTGTAGAA
GTTTTCACGTGTATCG
ATGGTCACGTGTGAGT
TTAAACACGTGATGGT
ATGATCACGTGTGGCA
TTATTCACGTGGTCTT
TGTTGCACGTGGAGAG

Relative binding free energy, 0.24 kcal/mol:
GTGTACACGTGGATTC
CAATTCACGTGCGGGG
TTATTCACGTGGTTGC
GTATTCACGTGTGTAA
GCGTCCACGTGAGGTG
AAATTCACGTGTTGAT
AGGGTCACGTGAACTG
AGCGTCACGTGAGGGT
GGAGACACGTGGAATT

Relative binding free energy, 0.13 kcal/mol:
GCGCTCACGTGCGGGG
GCAGTCACGTGCGGGG
GAAGGCACGTGATTAA
GCTGTCACGTGTTAAG

Relative binding free energy, 0.11 kcal/mol:
TCGTACACGTGTCGTG
AGAATCACGTGGGATG

Relative binding free energy, 0 kcal/mol:
ATAGTCACGTGCTATT
TAATGCACGTGTGGTG
GGGCGCACGTGGTACT

Relative binding free energy, 0.23 kcal/mol:
CGGGTCACGTGTAGGG
TGGTTCACGTGCTGTG
AGTTCCACGTGAATGG
TTGGTCACGTGTCAAT

Relative binding free energy, 0.19 kcal/mol:
TTGCTCACGTGTTTCG
GTGGGCACGTGAAGTA

Relative binding free energy, 0.01 kcal/mol:
AATGTCACGTGGCTAG
GGGAGCACGTGTGGAC
TTTTACACGTGGGCTA
TTAAGCACGTGTGAAT
GTGGACACGTGGGAAA
ATGGCCACGTGACGGG

Relative binding free energy, 0.3 kcal/mol:
GATTTCACGTGAGGCT
GGGAGCACGTGAAGGC
AAATTCACGTGATGTA

Relative binding free energy, 0.08 kcal/mol:
AGGTACACGTGGAATT
CATTACACGTGTGTAG
TGTGTCACGTGCTGCT

Relative binding free energy, 0.03 kcal/mol:
AATACCACGTGTTGGT

Relative binding free energy, 0.07 kcal/mol:
GTTTACACGTGCTCGT
GGTGGCACGTGTGACG

Relative binding free energy, 0.29 kcal/mol:
TTGGTCACGTGATACG

Relative binding free energy, -0.11 kcal/mol:
GTTTGCACGTGGGCTA
GGGGGCACGTGCAGCG
TTGGCCACGTGCCGGT
CAAGTCACGTGGGGTT
ATTAGCACGTGCTTAT

Relative binding free energy, 0.05 kcal/mol:
AATTACACGTGGTCTT
TGGGTCACGTGCAGAG
TGGCGCACGTGTGTTC

Relative binding free energy, 0.39 kcal/mol:
TTTTTCACGTGGACGC

Relative binding free energy, 0.09 kcal/mol:
TAGTACACGTGTGTGA
GTCTACACGTGGTAGT
GCGGTCACGTGGAGTG
GGAGACACGTGTGGAG
TGTATCACGTGCTTCG
AGTTGCACGTGACGTG
CAGTGCACGTGTGGAA

Relative binding free energy, 0.28 kcal/mol:
AGTTTCACGTGGCTTG

Relative binding free energy, -0.17 kcal/mol:
TTGGGCACGTGCGAGG
GTGAGCACGTGGGCAG
AGTGTCACGTGGGCTT
ATAGGCACGTGGGTGA

Relative binding free energy, -0.24 kcal/mol:
ATTAGCACGTGGTCTT

Relative binding free energy, -0.16 kcal/mol:
GGATGCACGTGGGCTT

Relative binding free energy, -0.08 kcal/mol:
AATAGCACGTGTTTTA
ATGGGCACGTGTCAGT
ATAGACACGTGGTTAT
CGCGCCACGTGTAGGG
TGTGGCACGTGTGGGA
AATGGCACGTGTCTAG
TCGTGCACGTGGCGGC

Relative binding free energy, 0.37 kcal/mol:
AGTTACACGTGAGTCG
TGGAACACGTGAATAG
GATTTCACGTGTGCGC
GGATTCACGTGGGCGA

Relative binding free energy, -0.05 kcal/mol:
TGTCGCACGTGGTTAG
CAAGGCACGTGTTTGG
CTTTGCACGTGTTTAT
TGTATCACGTGGGACT

Relative binding free energy, -0.19 kcal/mol:
ATTCGCACGTGGGGTC
CTGGGCACGTGGTTCT

Relative binding free energy, 0.53 kcal/mol:
AGTATCACGTGAAAGT

Relative binding free energy, 0.49 kcal/mol:
GGTTTCACGTGAAGAC

Relative binding free energy, -0.09 kcal/mol:
GCTCGCACGTGTTGGG
TTATGCACGTGTACGG
CCGGGCACGTGTTTGT
TGGGGCACGTGTGACG
TTTGGCACGTGGTTGT
TTTTCCACGTGGGAGT

Relative binding free energy, 0.25 kcal/mol:
TTGCTCACGTGATGGG
TATCTCACGTGTTGAA

Relative binding free energy, 0.2 kcal/mol:
GTTATCACGTGTTTTA
GTGTGCACGTGAGTTA
GTGATCACGTGGATTA
TTCTTCACGTGCTAGG
AGGCTCACGTGGAGTA

Relative binding free energy, 0.1 kcal/mol:
GTAGGCACGTGTAGAT
TTGTGCACGTGACTAG
TCTTGCACGTGTGTGA
TGTTACACGTGGAATA
GATGGCACGTGGACTT

Relative binding free energy, 0.48 kcal/mol:
GAGTTCACGTGAGGCA

Relative binding free energy, 0.17 kcal/mol:
TATTTCACGTGGGGCG

Relative binding free energy, 0.04 kcal/mol:
GTTAGCACGTGTAGGA
GGCTGCACGTGTGCGT
GTGGCCACGTGTAGTG
ATTTGCACGTGTTGGC
ATATTCACGTGCTTTT

Relative binding free energy, 0.26 kcal/mol:
GTTGACACGTGATTTT
ATGTTCACGTGCCAGG
ATTCTCACGTGAGTGG

Relative binding free energy, 0.21 kcal/mol:
AGGAGCACGTGAGTAG
GGGATCACGTGGTCTT
GTGATCACGTGTTTTT
TTGTTCACGTGGAGCG
TTGTACACGTGTGCTT
